Test results taken from the supplement of paper PMC12217912.
The list shows a part of the results. The full chains were built here from the parent and the listed change. Inactive controls read about 0.05.

B1: TEV protease; numbered along this chain (parent)
chain: MGESLFKGPRDYNPISSSICHLTNESDGHTTSLYGIGFGPFIITNKHLFRRNNGTLVVQSLHGVFKVKDTTTLQQHLVDGRDMIIIRMPKDFPPFPQKLKFREPQREERICLVTTNFQTKSMSSMVSDTSCTFPSGDGIFWKHWIQTKDGQCGSPLVSTRDGFIVGIHSASNFTNTNNYFTSVPKNFMELLTNQEAQQWVSGWRLNADSVLWGGHKVFMVKPEEPFQPVKEATQL

Variants of: B1
Test: raw area under fraction-flipped curve 0-4 h after induction (AUC4h, not background-subtracted), DNA-recorder readout of cleavage of the substrate (dimensionless); higher = more cleavage of the substrate by the protease variant
Conditions: temperature: 34 °C; time window: 0-4 h after rhamnose induction
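Further: Bxb1 expression induced with 0.2% (w/v) L-rhamnose at OD600 near 0.5, cultures sampled hourly, flipped fraction per protease–substrate barcode pair counted by paired-end Illumina sequencing.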

Variant | area with substrate ENAYFQS | area with substrate ENDYFQS | area with substrate ENEYFQS | area with substrate ENFYFQS | area with substrate ENGYFQS | area with substrate ENHYFQS | area with substrate ENIYFQS | area with substrate ENKYFQS | area with substrate ENMYFQS | area with substrate ENNYFQS | area with substrate ENPYFQS | area with substrate ENQYFQS | area with substrate ENSYFQS | area with substrate ENTYFQS | area with substrate ENVYFQS | area with substrate ENCYFQS | area with substrate ENRYFQS | area with substrate ENWYFQS | area with substrate ENYYFQS
E224W | 0.062 | 0.0649 | 0.0515 | 0.058 | 0.0656 | 0.0583 | 0.101 | 0.0585 | 0.104 | 0.0575 | 0.0567 | 0.0606 | 0.0579 | 0.0441 | 0.0822 | – | – | – | –
F226C | 0.0716 | 0.0581 | – | 0.0659 | 0.0628 | – | 0.114 | 0.0803 | – | 0.0647 | – | 0.0616 | 0.0711 | 0.0611 | – | 0.0805 | 0.0353 | 0.0553 | 0.0588
A232C | 0.0574 | – | 0.103 | 0.0654 | – | 0.0514 | – | – | 0.0023 | – | 0.0793 | 0.0634 | 0.0696 | 0.0558 | 0.0499 | – | 0.0551 | 0.0532 | –
A232H | 0.0575 | 0.0596 | 0.0515 | – | 0.0674 | 0.0529 | – | 0.0736 | – | 0.0597 | 0.0716 | 0.0505 | – | – | 0.0856 | – | – | – | –
A232N | 0.0756 | 0.0532 | – | – | 0.0661 | 0.0601 | 0.152 | 0.0646 | – | – | – | 0.0569 | 0.0612 | 0.0372 | – | 0.0582 | 0.0584 | – | –
A232S | 0.0718 | – | 0.0583 | 0.0553 | – | 0.0709 | 0.12 | 0.0647 | – | 0.0314 | – | 0.0604 | 0.059 | – | 0.0843 | 0.0699 | 0.027 | 0.0618 | –
A232T | 0.0686 | 0.0619 | – | 0.0419 | – | 0.0569 | 0.172 | – | 0.112 | – | 0.0439 | 0.0618 | 0.0511 | – | – | 0.0634 | – | – | –
A232V | 0.069 | 0.0543 | – | – | 0.0494 | – | – | – | – | 0.0624 | 0.0568 | – | 0.0635 | 0.0624 | 0.079 | 0.0724 | – | – | –
A232W | 0.0809 | – | – | 0.057 | – | 0.0463 | – | – | 0.0731 | – | – | 0.059 | 0.0583 | 0.0643 | – | 0.0687 | – | – | 0.0621
unchanged | 0.0628 | 0.0615 | 0.061 | 0.0618 | 0.0629 | 0.0609 | 0.108 | 0.0599 | 0.0799 | 0.0611 | 0.0602 | 0.0602 | 0.0623 | 0.0629 | 0.0781 | 0.0667 | 0.0587 | 0.05 | 0.0597
G8S | – | 0.0688 | – | – | – | 0.0467 | – | – | 0.0642 | 0.0652 | – | 0.0634 | 0.0754 | – | 0.0756 | 0.0706 | 0.0808 | 0.0576 | –
S16A | – | 0.0543 | 0.0484 | 0.0574 | – | 0.0525 | 0.104 | 0.0404 | 0.0748 | 0.0656 | 0.0649 | 0.062 | 0.0622 | – | 0.0795 | 0.0634 | – | – | 0.0661
S16Y | – | 0.108 | 0.0717 | – | 0.0558 | – | 0.0891 | 0.0627 | – | 0.0607 | – | 0.0708 | 0.0678 | – | – | 0.0651 | – | 0.0468 | –
S32I | – | 0.0554 | 0.0521 | – | 0.0686 | 0.0549 | – | – | 0.0697 | 0.0679 | 0.0673 | – | 0.051 | – | 0.0681 | 0.0713 | 0.0626 | 0.0489 | 0.0619
P40N | – | 0.0647 | 0.0655 | 0.0605 | – | 0.0585 | 0.105 | 0.0554 | 0.0887 | – | – | 0.0646 | 0.0619 | 0.0685 | 0.0943 | 0.0597 | 0.0556 | 0.0562 | 0.0673
L56T | – | 0.0495 | 0.047 | 0.0817 | – | 0.0601 | 0.0844 | 0.0494 | – | 0.0504 | – | 0.0604 | 0.0597 | 0.0596 | 0.0664 | 0.0482 | – | 0.053 | –
R81N | – | 0.0633 | 0.0648 | – | 0.063 | 0.058 | 0.0761 | 0.0716 | – | – | – | 0.0488 | 0.05 | – | 0.052 | 0.0505 | 0.0657 | – | –
M88C | – | – | – | 0.0632 | – | 0.0688 | – | 0.0637 | 0.0669 | 0.0592 | – | 0.0712 | 0.0648 | 0.0603 | 0.0758 | 0.0594 | – | 0.0031 | 0.0673
M88H | – | 0.051 | – | – | – | – | – | – | – | – | – | 0.0389 | 0.0835 | – | 0.0496 | 0.0368 | – | – | –
P96N | – | – | 0.0567 | 0.0455 | 0.0698 | 0.0523 | – | – | 0.0679 | 0.0536 | – | 0.0547 | 0.0551 | 0.0674 | 0.0778 | 0.0564 | 0.0584 | 0.0685 | –
P96V | – | 0.06 | 0.0593 | 0.0693 | 0.0543 | 0.0666 | 0.0851 | 0.0609 | – | 0.0573 | 0.0646 | 0.0543 | 0.0674 | 0.0635 | 0.0596 | 0.0622 | 0.0558 | – | 0.057
L112Y | – | 0.0556 | 0.0644 | 0.052 | – | 0.0605 | 0.072 | 0.0659 | 0.0634 | 0.043 | – | 0.0609 | 0.0632 | 0.0554 | 0.0594 | 0.0687 | – | – | –
D128E | – | 0.0608 | – | – | – | 0.0593 | – | 0.0719 | – | 0.0405 | 0.0492 | 0.0626 | – | 0.0746 | – | 0.072 | – | – | –
D128R | – | 0.0579 | 0.053 | 0.0661 | 0.0584 | 0.061 | – | – | 0.095 | – | – | 0.0602 | 0.0754 | – | – | 0.0769 | 0.0621 | – | 0.0579
G136W | – | 0.0614 | 0.056 | 0.0356 | – | 0.0591 | – | 0.0453 | – | 0.0644 | 0.0594 | 0.0527 | 0.0657 | 0.058 | 0.0703 | 0.0709 | 0.051 | 0.0473 | 0.0565
D149M | – | – | 0.0748 | 0.058 | 0.0487 | 0.0589 | 0.115 | 0.053 | 0.0488 | 0.0855 | – | 0.0625 | 0.0671 | 0.0614 | 0.0672 | 0.0502 | 0.0563 | – | 0.0909
V157F | – | 0.0535 | 0.0608 | 0.0544 | 0.0519 | 0.0574 | – | 0.0611 | – | 0.0746 | 0.0476 | 0.0563 | 0.103 | 0.0507 | 0.0638 | 0.0637 | 0.0613 | 0.0651 | –
R160Y | – | 0.0616 | 0.0644 | – | 0.0711 | 0.0592 | – | 0.0603 | 0.105 | 0.0541 | 0.0547 | 0.0343 | 0.0634 | – | 0.0713 | 0.0648 | – | 0.0522 | –
